# Test results: the supplement of paper PMC3334620
# The full ranking holds about 33,000 sequences; the median of “E-score (-0.5 to 0.5)” is about -0.056, and the highest 2% start at about 0.38. Some of the results follow.
# Target: Stb4 (UniProt P50104)
# Experiment: PBM E-score (8-mer binding enrichment) (E-score (-0.5 to 0.5)); higher = stronger / more preferred TF binding; most listed sequences are background and not binding sites
# Settings: protein concentration: 200 nM; construct: GST-DNA-binding domain
# Outline: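 Full-length yeast transcription factors or their DNA-binding domains, GST-tagged and expressed with PURExpress, were applied at about 100-200 nM to universal all-10-mer Agilent arrays. These arrays had been made double-stranded by primer extension on fresh or once-stripped slides. Detection used fluorescent anti-GST, normalisation used masliner, and E-scores for ungapped eight-base words pooled with reverse complements came from the Universal PBM Analysis Suite.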
row,Sequence,PBM E-score
1,AAGCCGGT,0.143
2,GCTGTGCA,-0.116
3,CCCCCCGC,-0.317
4,GGCAGGCC,0.0456
5,GGCCAGCA,-0.0995
6,CAAAGGTG,-0.0692
7,CCCAATCC,0.0104
8,CCATCAGC,-0.107
9,GGAGACAA,0.061
10,CCAGGTTC,-0.067
11,AATCCTAT,0.0532
12,GCGACCCA,-0.00585
13,CTTTCCTC,-0.132
14,AGAGGATA,-0.14
15,CCTGCCAG,-0.253
16,ACGTTCCG,0.398
17,GTTCCGGA,0.435
18,ATGATCCG,0.397
19,AGTGGTAC,-0.164
20,AAAACGAC,-0.153
21,ATGCAGCG,-0.0375
22,AGAATAGG,-0.0437
23,GATACTGC,0.0589
24,CACCGGGG,0.0986
25,ATCTGAAA,-0.00451

row,Sequence,PBM E-score
1,AGACGTCC,-0.0946
2,CCCTGTAG,-0.0785
3,CCCACAAC,-0.171
4,CGGTGGGA,0.1
5,CACTCGCA,-0.0492
6,AAAACTCT,-0.193
7,ATAGGCCA,0.00114
8,AGCGTGCA,0.0521
9,ATTCACTG,-0.187
10,CTAATGGC,-0.14
11,GCTGCTTA,-0.022
12,GACTAACC,-0.066
13,ACATAGTG,0.0377
14,CCGTTTTA,0.195
15,CCAATTGG,-0.214
16,GACAAGTA,-0.0988
17,ACAAACCG,0.209
18,CGCTCGAA,-0.105
19,AGGTCCTG,-0.114
20,AGAGCTTC,0.0854
21,AAACCACA,-0.0832
22,ACGAAACG,-0.107
23,TAGATAAA,-0.00785
24,CACTCAAC,-0.11
25,GGTGGATA,0.0727

row,Sequence,PBM E-score
1,GTATCGTA,-0.237
2,GCCTACGA,0.0698
3,ACCACGCC,0.0296
4,TCGACCGA,0.197
5,CAACCCCC,-0.24
6,CGGCCCGA,0.444
7,CAAGTCCA,-0.306
8,CGAATAAG,0.0389
9,CAACACGA,-0.167
10,AACGCAAG,-0.164
11,ACCGGGCG,0.103
12,CAATTGGA,-0.112
13,ATGGTTTC,0.0176
14,ATGCTAGC,0.113
15,AGTACTGA,-0.0631
16,CAGACCGC,-0.0284
17,ACTATCAG,-0.182
18,AATCAGTC,-0.0412
19,CCAAAAAC,0.236
20,AGATCTCG,0.116
21,CACATTCA,-0.0985
22,AAGCAAGA,-0.196
23,ACCATTGA,-0.234
24,CTTATAGA,-0.148
25,GACAATCC,0.206

row,Sequence,PBM E-score
1,TAAGTCAA,-0.261
2,CTTTATAC,0.186
3,CAGACTCC,-0.108
4,CGCCAGAC,-0.174
5,ACAAGTAA,-0.237
6,GAATACCC,0.341
7,AGATTAGA,-0.228
8,AAGTTCGT,-0.197
9,GAGCTGCA,0.039
10,CCGTCATC,0.158
11,ATGATTCA,-0.198
12,CGCGCCCC,0.176
13,ATGACCTA,-0.112
14,ACTAATCT,-0.0738
15,ACACGATC,0.084
16,CATCCGCC,0.4
17,AGGCTGGA,-0.262
18,CTAAAATC,-0.12
19,TGAAATAA,-0.0566
20,GCTTTTAA,0.0126
21,TCGCGAAA,-0.0156
22,CCGCATCG,0.227
23,TACGAGAA,-0.113
24,GTGGTACA,-0.0951
25,CGCGTGAC,-0.0474

row,Sequence,PBM E-score
1,AACAGGAG,0.00857
2,CGACATCC,0.229
3,AGATTTCC,0.193
4,AAGGCAAA,-0.222
5,ACGTTCTA,-0.282
6,CAACGGGA,0.201
7,ACCGCTTG,-0.0825
8,AGTAGAAT,-0.297
9,CTGGTCTA,-0.0983
10,GCCGACTA,0.166
11,CTGCGCTA,-0.215
12,GCCGGAGA,0.192
13,CCATGACG,-0.0178
14,AGACGAGC,-0.217
15,GCCTCCAA,-0.157
16,AGGGGTGC,-0.196
17,CATCTGAG,-0.123
18,GATAAGCA,0.136
19,ACGCAGCA,-0.243
20,AGGCACAC,0.0134
21,CACTGGCC,-0.154
22,CTCCGCAA,0.094
23,CCATTAAA,0.101
24,AGAAGATA,0.055
25,CGTTTATA,-0.0024

row,Sequence,PBM E-score
1,CTTCCGGC,0.392
2,CCTCGAGG,-0.259
3,CGATACTA,0.081
4,CACTATCG,0.0687
5,TGATGGCA,-0.277
6,ATGATTGC,-0.134
7,AGCTTCGG,0.395
8,CAAAGACC,-0.0254
9,GATGGACA,-0.0273
10,CACCCATA,-0.137
11,GAATCGGC,0.338
12,GTTCAAAA,0.0253
13,CCAGGTTA,-0.135
14,ACACCTCA,-0.205
15,ACCGGCTC,0.204
16,ATAACTAG,-0.123
17,GACGCACA,0.0387
18,ACCCTGAG,-0.122
19,CTATGATC,-0.0477
20,TCCGAAAA,0.441
21,ACTCTCGG,0.416
22,ACGTGACC,-0.02
23,GTGAGAGA,-0.2
24,TGCCGCCA,0.202
25,GAAGGAAC,0.123

row,Sequence,PBM E-score
1,AATCAGAT,-0.0523
2,AAGTCGGA,0.372
3,AACTAGAC,-0.0359
4,CGTATACG,0.241
5,AGCTCGAG,-0.176
6,GAGCGCAC,0.11
7,GTCATATA,-0.0992
8,ATCAGGCC,-0.0274
9,GAATTTCC,0.221
10,GGATATGA,0.235
11,CGGAAGAG,0.351
12,ACCTACGG,0.0352
13,AAAAATAC,0.0542
14,ACAAACTC,0.113
15,CTCTCGAA,-0.356
16,GTGAACTA,-0.156
17,CACTCGAA,-0.267
18,AGGGAGGG,0.109
19,GGCTATCA,0.144
20,AGTAGTGA,-0.0831
21,AGAGGGAT,-0.271
22,CTCTACCA,0.0241
23,GCGGACAA,0.126
24,AGTATGCA,-0.176
25,AAGAGTTG,-0.164

row,Sequence,PBM E-score
1,CAGAGGCG,-0.0504
2,TAGTTACA,-0.0897
3,AAGTGAAT,0.149
4,CAGTCTTC,-0.162
5,GTCCGGAC,0.283
6,CACCCGGC,0.277
7,CTCGCCAG,-0.119
8,AGAATGAC,-0.222
9,ACCTCAGG,-0.28
10,GTTCCAAC,0.0869
11,ACTCGCTG,-0.174
12,ACCAATCG,-0.00773
13,CTCGATAA,0.0444
14,AAAAGAAC,-0.0657
15,AGACACAT,-0.212
16,CCCCGTCG,0.0478
17,ACATTTGG,-0.0128
18,GTAGCTGA,-0.195
19,CGAAGGTA,0.0861
20,GCACAGAC,-0.0125
21,ATAAAGGA,-0.15
22,GACCTGTA,-0.0511
23,CCAATAAA,-0.11
24,AGTAGCGA,-0.293
25,AGTCCGGA,0.332

row,Sequence,PBM E-score
1,GGAAGCTA,0.3
2,CTGGTTGA,-0.237
3,CACCACGA,-0.167
4,AGACACAG,-0.089
5,ACGGCATG,0.0075
6,CAGTATGA,-0.185
7,CGGTATGC,0.0919
8,AAAATAAT,-0.0309
9,GCCCGCCC,0.107
10,CACAGTAA,-0.243
11,GTTAACCA,0.0012
12,GAAAGTGC,-0.0189
13,GCTGAGCA,-0.123
14,GAGCGACA,-0.201
15,CTTTAAGA,0.0633
16,ACGCAGAC,-0.181
17,ATGGGTGG,-0.0789
18,ACCGTTCA,0.0153
19,ATGTGACG,-0.15
20,GTGCAAGA,-0.0626
21,ATTATTCC,0.25
22,ACTCACAT,-0.312
23,AAGGACTG,-0.22
24,GCCCTAAC,0.0868
25,GTTCCCGA,0.419

row,Sequence,PBM E-score
1,CTCATGGC,-0.0117
2,TAGCTATA,-0.0836
3,AACCGCAA,0.0842
4,CCAAAGCC,-0.0887
5,CCGTCTAG,0.161
6,ACACAGTC,-0.138
7,GTCTCTAA,-0.126
8,ACTACATA,-0.242
9,CTGATGCC,-0.0385
10,CTAATCAC,0.00419
11,CTTTCTCC,0.0408
12,ATTGGACC,0.104
13,ACGTGCGA,-0.198
14,CTCACCAA,-0.133
15,ATGGAATC,-0.0161
16,GCTGGCAC,-0.224
17,CAGCACCC,0.0352
18,ATCAAGAG,-0.113
19,ATTTGTCC,0.112
20,ACCACAGG,-0.177
21,ATCCCGCC,0.232
22,ATCCTTAG,-0.0109
23,ATCTCACG,-0.0385
24,AGATAGAT,-0.187
25,GGCTATAA,0.104

row,Sequence,PBM E-score
1,GCAACAGA,0.00771
2,AACCTCAT,-0.122
3,ATGAATGG,-0.0556
4,AGGCTCAA,-0.202
5,ACGCGTAA,-0.121
6,CGCAATTC,0.084
7,CAAAGCGC,0.0796
8,ACACGGCG,0.0269
9,CGGACCAG,0.108
10,ACCCGGAT,0.374
11,CATTGATC,-0.0448
12,ATGTATAC,-0.078
13,CGGGCCTA,0.156
14,GACGAGCC,-0.0685
15,GAACTTTA,0.154
16,CGGCCACA,0.0589
17,ACGACCCA,-0.168
18,GCATGCTA,-0.0194
19,GTATACGA,0.00578
20,AATGAACA,-0.147
21,CATCCGGG,0.397
22,TTAAACAA,-0.263
23,CAAAAGGC,-0.0435
24,GGCACGCC,-0.0433
25,CATTTTCC,0.0537

row,Sequence,PBM E-score
1,ACCACCTC,0.177
2,TGGCCAAA,-0.175
3,CCCTACAA,-0.218
4,GGAGGGTA,0.0433
5,CGCCAGTA,-0.199
6,CAGTTTCC,0.197
7,GATTCGCC,-0.0248
8,GATCGTAC,0.108
9,AAGGTCCG,0.217
10,ACATCTCT,-0.243
11,CTAGCTTC,0.122
12,AACATTTG,-0.0816
13,GGCAAAAA,0.233
14,AAAACGCG,0.0778
15,AGTCGTCA,-0.192
16,AGTAAGTC,-0.0385
17,CCAATCTA,0.0537
18,AATCCCGC,0.225
19,GCCTGACA,-0.111
20,CTATCTAC,-0.0208
21,TACCAACA,-0.169
22,TCTGTGCA,-0.163
23,TGGAGAAA,-0.15
24,ACCGGAGC,0.244
25,CGGCATCC,0.301

row,Sequence,PBM E-score
1,AAGCAGGT,-0.046
2,CAACCTCG,0.19
3,CGAATACG,0.146
4,CTGTAAAC,-0.205
5,CGTATACC,-0.086
6,TAGAGGGA,-0.272
7,ACGCCACA,-0.00364
8,CTTCCCTC,-0.117
9,ACCTCCCT,-0.111
10,ACTAAGAC,-0.125
11,GTTCGCGA,0.0211
12,CTCGTCAA,-0.214
13,CTGTCCCA,-0.234
14,GAGCCGCC,0.229
15,AGTTATAC,0.0159
16,ACCGAGAC,0.357
17,GGTCAACC,0.0687
18,CCTCAGCC,-0.238
19,GAATCGTA,-0.0747
20,AGCTTTAA,-0.17
21,GAGAGCAA,-0.0902
22,AGATTACA,0.033
23,GCTAAACC,0.121
24,TCGTATAA,0.0332
25,CCAAAGAG,-0.0937

row,Sequence,PBM E-score
1,AATTTTGG,-0.0161
2,AAATAACC,0.127
3,GAGGTGAA,-0.125
4,CCCACATC,0.023
5,CAACCGTG,-0.0932
6,ACGAGTAC,-0.106
7,ATACGCCA,-0.0679
8,CGGCGGGA,0.275
9,AAGGAATA,-0.116
10,CACGCCCA,-0.105
11,AGAGGAGG,-0.109
12,GCATGTCA,-0.073
13,GCTTCAAC,-0.173
14,CGTCGAAA,-0.0197
15,CCCTCCGG,0.208
16,GGCCGAAC,0.313
17,CCAAAACC,0.0531
18,GTCAACAA,-0.0581
19,AGCCAGCC,-0.123
